Our source for the z-score values is PubChem BioAssay AID488969 (Vanderbilt High Throughput Screening Facility, 2010).

Each structure is given as a SMILES string. Over roughly 110,000 compounds, “z-score” has its median near -0.1; the highest 2% begin near 2. This is one part of the list. The source made the active and inactive calls.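 How the source made its calls: active means z-score in the third read window above 3 or below -3; inactive means the rest.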

The target of this assay is Metabotropic glutamate receptor 8 (Rattus norvegicus) (UniProt P70579). The assay is described as follows: mGluR8 Gi/Go-coupled signaling modulation – cell-based, rat, thallium flux, HTS, primary screen (AID 488969). To be noted: HEK293 rat mGluR8, GIRK (G protein-gated inwardly rectifying potassium channel) thallium flux, FluoZin2; at 10 µM; stronger effect = higher value; submaximal glutamate (EC20) added with thallium.
Sequence of UniProt P70579 (P70579 whole entry, looked up): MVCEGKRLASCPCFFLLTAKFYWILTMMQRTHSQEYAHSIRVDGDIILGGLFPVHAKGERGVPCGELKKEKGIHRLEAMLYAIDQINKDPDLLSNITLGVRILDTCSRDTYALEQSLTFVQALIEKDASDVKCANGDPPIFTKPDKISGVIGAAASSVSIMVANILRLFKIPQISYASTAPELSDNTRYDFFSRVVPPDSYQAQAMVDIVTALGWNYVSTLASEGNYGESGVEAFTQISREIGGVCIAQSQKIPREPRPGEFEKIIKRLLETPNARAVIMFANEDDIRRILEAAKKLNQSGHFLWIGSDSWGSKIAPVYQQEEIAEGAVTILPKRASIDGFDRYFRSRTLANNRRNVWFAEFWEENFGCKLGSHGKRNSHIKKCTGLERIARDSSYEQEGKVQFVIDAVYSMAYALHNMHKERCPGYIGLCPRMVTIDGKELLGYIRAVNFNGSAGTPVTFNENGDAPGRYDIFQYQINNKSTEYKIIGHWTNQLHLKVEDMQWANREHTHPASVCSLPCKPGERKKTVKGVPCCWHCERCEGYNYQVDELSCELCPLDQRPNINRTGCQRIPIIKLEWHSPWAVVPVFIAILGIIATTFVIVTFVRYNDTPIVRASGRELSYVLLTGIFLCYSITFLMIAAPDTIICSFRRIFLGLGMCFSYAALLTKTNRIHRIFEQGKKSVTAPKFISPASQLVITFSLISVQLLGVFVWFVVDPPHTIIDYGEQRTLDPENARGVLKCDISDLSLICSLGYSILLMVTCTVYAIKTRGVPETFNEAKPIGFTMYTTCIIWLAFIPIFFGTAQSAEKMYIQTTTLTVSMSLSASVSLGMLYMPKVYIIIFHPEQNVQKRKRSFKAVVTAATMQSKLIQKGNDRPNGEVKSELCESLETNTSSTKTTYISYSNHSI
On to `CCCCC1NC(=S)N(C2CCCCC2)C1=O` (stereo not given), for which the z-score was -0.596.
As for `CCn1ncc(/C=N\NC(=O)COc2cc(C)cc(C)c2)c1C`, the z-score was -0.0153.
`CC1(C)CC(=O)C(CC2=C(O)CC(C)(C)CC2=O)=C(O)C1` came in with a z-score of -0.327.
As to `O=C(NCCc1ccc(Cl)cc1)/C(=C/c1cccnc1)NC(=O)c1ccccc1`, the z-score came to 0.243.
The value for `O=C(NNC(=S)Nc1cccc(C(F)(F)F)c1)c1cccc(Cl)c1` was 2.97.
`CC(=O)Nc1cc(C(=O)NCc2ccco2)ccc1Sc1ccc(F)cc1` came in with a z-score of -0.293.
The value for `O=C(c1cccc(S(=O)(=O)N2CCCCC2)c1)N1CCCCC1` was -0.33; that for `Cc1cc(C)cc(NS(=O)(=O)c2ccc(Oc3ncc(C(F)(F)F)cc3Cl)cc2)c1` was -0.356; that for `Cc1ccc(CSc2nnc([C@@H]3CCCN3)o2)cc1` was 0.148.
As for `O=CNc1ccc(S(=O)(=O)NCc2ccccc2)cc1`, the z-score is -0.522.
Consider `CC12C(=O)N(CCC(=O)O)C(=O)C1C1C=CC2C1` (stereo not given), for which the z-score worked out at 0.561.
`COc1cc(OC)c(C2C(C(=O)N3CCOCC3)=C(C)NC3=C2C(=O)CC(C)(C)C3)cc1OC` (stereo not given) came in with a z-score of -0.103.
The value for `COc1ccc(C2(CNC(C)=O)CCCC2)cc1OC` was 0.0484; that for `CC(=O)/C(=N/Nc1ccc(Br)cc1)Sc1cccc2cccnc12` was 0.227.
Regarding `O=C(COC(=O)c1cc([N+](=O)[O-])ccc1NCc1ccccc1)NC1CCCc2ccccc21` (stereo not given), the z-score worked out at 0.679.
The molecule `COc1ccc(CNc2oc(C)nc2C#N)cc1` gave a z-score of -0.0711.
The value for `O=C(CCS(=O)(=O)Cc1ccccc1)N1CCN(Cc2ccccc2)CC1` was -0.495.
For `CC1CCc2cc(F)ccc2N1C(=O)CSc1nnc2c3ccccc3n(C)c2n1` (stereo not given), the z-score was -0.143.
With `CCOC(=O)c1cccc(NC(=O)C2CCCO2)c1` (stereo not given) the figure was 0.0911; with `O=C(NCc1ccccc1)c1cccc(COc2ccc(Cl)cc2)c1`, -0.113.
With `O=C(ON=C1CCN(S(=O)(=O)c2ccccc2)CC1)c1cccc(Cl)c1` the figure was 0.19.
With `Cc1ccsc1C(=O)OCC(=O)Nc1c(C)n(C)n(-c2ccccc2)c1=O` the figure was 0.018.
Turning to `Cc1ccccc1-c1nc(CS(=O)(=O)CC(=O)N2CCc3ccccc32)c(C)o1`, the z-score was -1.49.
As for `CCc1ccc(OCC(=O)N/N=C2\CC(=O)c3ccccc32)cc1`, the z-score came to 0.325.
With `Cc1ccc(C(C)C)c(OCCN2C(=O)NC(C)(C)C2=O)c1` the figure was -0.0276; with `CCc1cc2c(=O)c(-c3ccc4c(c3)OCCO4)c(C)oc2cc1OS(C)(=O)=O`, 0.255.
`COc1cc(-c2csc(N3CCOCC3)n2)cc(OC)c1OC` gave a z-score of -0.149.
With `CCCC(c1nnnn1CC1CCCO1)N1CCN(c2nc3ccccc3s2)CC1` (stereo not given), the z-score was -0.777.
With `NC(=S)N/N=C/c1cc([N+](=O)[O-])ccc1OCCOc1ccccc1` the figure was -0.231; with `CCOc1ccc2nc(SCC(=O)Nc3ccc4c(c3)OCCO4)[nH]c2c1`, -0.555; with `Cc1c(C(=O)Nc2cccc(Cl)c2)cn2c(nc3ccccc32)c1C#N`, 0.424.
In turn, `CC1CCC(C(=O)c2c(O)c3ccccc3oc2=O)CC1` (stereo not given) gave a z-score of -0.00138.
The value for `Cc1ccc(-c2nnn(CC(=O)N(CC3CCCO3)C(C(=O)NC3CCCCC3)c3ccc(F)cc3)n2)o1` (stereo not given) was -0.0464; that for `CC(=O)N1CCN=C1SCc1ccc(Br)cc1` was 2.58.
With `Cc1ccc(-c2ccc(SCC(=O)Nc3ccc4c(c3)OCCO4)nn2)cc1` the figure was -0.351; with `CCC1(NC(C)=O)CC2CC1CC2NC(C)=O` (stereo not given), -0.273; with `CC(=O)C1CCN(Cc2ccccc2)CC1`, -0.262.
`CC(=O)c1cnn(-c2cc(Oc3ccc(F)cc3)ncn2)c1C`: the z-score turned out to be 0.354.
With `C=CCn1c(CSCc2ccc(Cl)cc2)nnc1SCC(=O)NCc1ccccc1` the figure was -0.461.
With `O=C(COC(=O)CC1CCCC1)Nc1cc2c(cc1Cl)C(=O)c1ccccc1C2=O` the figure was -0.0898; with `CC(OC(=O)c1cc2c(ccc3ccccc32)oc1=O)c1nc2ccccc2s1` (stereo not given), -0.466.
For `Cc1ccc2nc(N3CC(=O)Nc4ccccc43)nc(-c3ccccc3)c2c1`, the z-score was determined as 0.188.
`O=C1c2ccccc2C(=O)c2c1ccc(C(=O)N1CCCCC1)c2NCCO` returned a z-score of 0.68.
For `O=C(COC(=O)c1cc[n+]([O-])cc1)NCC12CC3CC(CC(C3)C1)C2`, the z-score came out at 0.293.
`CCOC(=O)N1CCN(Cc2cc(=O)oc3cc4c(cc23)CCC4)CC1`: the z-score stood at 0.328.
In turn, `O=C(CSc1cccs1)Nc1ccc2ccccc2c1` had a z-score of -0.316.
`O=C(COC(=O)c1cc(-c2cccs2)nn1-c1ccccc1)Nc1ccc(F)c([N+](=O)[O-])c1`: the z-score is -0.0381.
The value for `COC(=O)c1ccc(Cl)c(NS(=O)(=O)c2ccc3c(c2)OCCO3)c1` was -0.374.
For `COc1ccc(CNC(=O)c2csnn2)cc1`, the z-score turned out to be 0.00744.
With `CCC(C(=O)N1CC2(C)CC1CC(C)(C)C2)N1C(=O)c2ccccc2C1=O` (stereo not given) the figure was 0.259; with `Cc1ccc2[nH]c(C(=O)O)c(NC(=O)CN3CCN(c4cccc(C)c4C)CC3)c2c1`, -1.03; with `NC1=NC(=O)C2(COC(c3ccccc3Cl)OC2)S1` (stereo not given), 0.681.
Molecule `Fc1ccc(N2CCN(Cc3nnc(-c4ccccc4)o3)CC2)cc1` came in with a z-score of -0.203.
With `CN1CCN(CCCNC(=O)c2ccc3c(c2)N(Cc2ccccc2)CCS3)CC1` the figure was 0.775; with `Cc1nc2sc(C(=O)c3ccccc3)c(N)c2c2c1CCCC2`, -0.409; with `NC(=O)c1ccccc1NC(=S)NC(=O)c1ccc(Br)o1`, -0.219.
The molecule `Cc1cccc(NC(=O)CSc2nnc([C@@H](N)Cc3ccccc3)o2)c1C` had a z-score of 6.73e-05.
`O=C(Nc1ccc2c(c1)OCCO2)NC1(C(F)(F)F)Oc2ccccc2O1` returned a z-score of 0.441.
In turn, `O=C1C2C3C=CC(C3)C2C(=O)N1Cc1ccc(CN2C(=O)C3C4C=CC(C4)C3C2=O)cc1` (stereo not given) gave a z-score of -0.294.
With `CCn1cc(C(C)NC(=O)COc2ccc(Cl)cc2C)c(C)n1` (stereo not given) the figure was -0.0807; with `CCOc1ccccc1Nc1ncnc2ccccc12`, 0.098; with `CCOc1c2c(nc3ccc(Cl)cc13)CCC2`, -0.0952.
`CC(NC(=O)NC1CCCCC1)C(c1cccs1)N1CCN(Cc2ccccc2)CC1` (stereo not given) showed a z-score of -1.18.
With `COc1ccccc1NC(=O)CN1C(=O)CSC(C)C1=O` (stereo not given) the figure was -0.0441; with `COC(=O)CSc1cc(C)nc(NC(C)=O)n1`, -0.202; with `C/C(=N/NC(=O)c1cccs1)c1ccc(NC(=O)COc2ccc(Cl)cc2)cc1`, -0.123.
With `N#CCSc1nc2ccccc2c(=O)n1CCC(=O)NCCc1ccccc1` the figure was 0.379; with `Cc1nc2ncnn2c(N2CCN(C(c3ccccc3)c3ccccc3)CC2)c1C`, 0.0777; with `CCCn1nnnc1-c1cccc(Cl)c1`, -0.176.
The value for `CC(C)Oc1cccc(C(=O)NC(=S)Nc2ccccc2)c1` was active: 3.26; that for `O=C(COC(=O)c1ccccc1C(=O)N1CCN(c2ccccc2)CC1)Nc1ccc(F)cc1` was 0.132.
With `Cc1ccc(-c2c[n+](CC(=O)Nc3nc(-c4ccc(F)cc4)cs3)c3n2CCC3)cc1`, the z-score amounted to 0.585.
With `O=c1cc(N2CCc3ccccc3C2)[nH]c(=O)n1C1CCCCC1` the figure was -0.223; with `Cc1nc2ccccc2c2oc(C(=O)NCCCN3CCC(C)CC3)cc12`, 0.707.
The value for `CC1CCCN(C(=O)c2cc3c(-c4ccc(Cl)cc4)nn(C)c3s2)C1` (stereo not given) was 0.0374.
The value for `CCN(CC)C(=O)CN1C(=O)COCC1=O` was 0.212; that for `COc1ccc(-c2onc3ccc(Br)cc23)cc1` was -0.14.
Molecule `CC(c1nnnn1C(C)(C)C)N(Cc1cccnc1)Cc1ccccc1Cl` (stereo not given) registered a z-score of -0.0427.
Turning to `Cc1ccsc1C1C2=C(CC(C)(C)CC2=O)Nc2ncnn21` (stereo not given), the z-score is -0.396.
With `Cc1ccc(C(=O)Nc2nccs2)cc1S(=O)(=O)N1CCCCC1`, the z-score turned out to be 0.0939.
For `COc1ccc(/C=N/Nc2snc(SC)c2C#N)cc1OC`, the z-score turned out to be 0.407.
Molecule `O=C(O)c1ccc2nc(CO)[nH]c2c1` showed a z-score of -0.107.
Molecule `COc1ccccc1CNc1cc(C)ccc1C` yielded a z-score of 1.01.
The value for `CCOC(=O)c1nnn(CC(=O)N2N=C(c3ccc(Cl)cc3)CC2c2ccc(OC)cc2)c1C(=O)OCC` (stereo not given) was 0.387.
With `COc1ccc(C(C)=O)c(OC(=O)c2ccco2)c1` the figure was -0.243.
With `O=C(c1cnn(-c2ccccc2)c1)c1ccc2ccccc2c1O` the figure was 0.749.
Consider `Cc1cc(C)cc(C(=O)NC(=S)Nc2ccc3c(c2)OCCO3)c1`, for which the z-score is -0.353.
With `CCCCCCOc1ccc(N2C(=O)CC(S/C(N)=N/N=C(\C)c3cccs3)C2=O)cc1` (stereo not given) the figure was -0.173; with `Cc1c(C)n(CC(O)CN2CCCCC2)c2ccccc12` (stereo not given), 0.093.
With `COC(=O)c1ccc(C)c(NS(=O)(=O)c2ccc(OC)c(OC)c2)c1` the figure was 0.0216; with `CC1(C)CC(=O)C=C(NCCO)C1`, 0.177.
With `C/C(=N/NS(=O)(=O)c1ccc(C)cc1)c1cccc(NC(=O)c2cccc(Cl)c2)c1` the figure was -0.202; with `COc1ccc(-c2nc3n(n2)C(c2ccncc2)C(C(N)=O)=C(C)N3)cc1` (stereo not given), -0.0823; with `O=C(Nc1ccccc1-c1ccccc1)c1cccc([N+](=O)[O-])c1`, -0.107.
Regarding `CSCc1cc(N(C)C)nc(SCc2ccc(Cl)c(Cl)c2)n1`, the z-score was -0.239.
In the case of `COc1cnc(SCc2ccc(Cl)cc2)nc1Cl`, the z-score is -0.163.
With `O=C(Nc1ccc[n+](CC(=O)c2cccc3ccccc23)c1)c1ccccc1` the figure was 0.182; with `COc1ccc(N2CCN(c3ccc(NC(=O)C4CCCCC4)cc3C#N)CC2)cc1`, -0.0647; with `Cc1sc(NC(=O)c2ccccc2)c(C(=O)N2CCN(C)CC2)c1C`, 0.321.
The value for `COc1ccc2cc(C(=O)N3CCCCCC3)sc(=O)c2c1OC` was 0.936; that for `O=C(c1ccccc1NS(=O)(=O)c1ccccc1[N+](=O)[O-])N1CCOCC1` was -0.286; that for `O=C(N/N=C/c1cccc(Oc2ccccc2)c1)c1ccccc1Br` was 0.0241.
With `Cc1cc(C)c([N+](=O)[O-])cc1-c1ccc(/C=N/c2c(-c3ccco3)nc3ccccn23)o1` the figure was -0.167; with `COC(=O)c1cc2n3ccccc3c(C)c(-c3ccccc3)c-2c1C(=O)OC`, -0.76; with `CCOC(=O)N1CCN(CCC(=O)Nc2ccc(OC)cc2OC)CC1`, 0.353.
The molecule `COc1ccc(-c2csc(-n3ncc(-c4cccs4)c3N)n2)cc1` registered a z-score of -0.78.
Molecule `O=C(COC(=O)CC1c2ccccc2CCN1S(=O)(=O)c1ccc(F)cc1)Nc1ccccc1` (stereo not given) had a z-score of -0.306.
With `C/C(=N\NC(=O)c1ccccc1)c1nc2ccccc2n1C` the figure was active: 3.71; with `COc1ccccc1CNC(=O)C(=O)NCC1OCCN1C(=O)c1cccs1` (stereo not given), 0.189; with `COCCCN1C(=O)C(=O)/C(=C(/O)c2ccc(OC(C)C)cc2)C1c1ccc(O)c(OC)c1` (stereo not given), -0.905.
